# Measured values as given in the supplement of paper PMC4604168 (melanoma cell lines).
# This is one part of the list. Most values come without repeats; read them as rough.
# How the values were obtained:
# Assay in all cases: cell count relative to DMSO control; melanoma cells; higher = more viable cells
# Settings in all cases: library dose: low library concentration; 72 h
# [1] = system: MZ2-MEL
# [2] = system: MeWo
# [3] = system: RPMI7951
# [4] = system: RVH-421
# [5] = system: SkMel28
# [6] = system: SkMel2
# [7] = system: SkMel30
# [8] = system: SkMel5
# [9] = system: UACC257
# [10] = system: UACC62
# 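Note: cell number obtained by counting DAPI-stained nuclei in high-throughput microscope images with image analysis software, screen run in 1,536-well plates.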
SMILES,cell count [1],cell count [2],cell count [3],cell count [4],cell count [5],cell count [6],cell count [7],cell count [8],cell count [9],cell count [10]
"COc1cc([C@@H]2c3cc4c(cc3[C@@H](O[C@@H]3O[C@@H]5CO[C@@H](C)O[C@H]5[C@H](O)[C@H]3O)[C@H]3COC(=O)[C@H]23)OCO4)cc(OC)c1O [etoposide] + C[C@@H]1CCN(C(=O)CC#N)C[C@@H]1N(C)c1ncnc2[nH]ccc12 [CP690550] (first compound 0.02 µM, partner dose 1 µM)",103%,99.6%,124%,99.4%,102%,90.4%,108%,104%,91.3%,99.7%
"CCN(CC)CCNC(=O)c1c(C)[nH]c(/C=C2\C(=O)Nc3ccc(F)cc32)c1C [sunitinib] + CN1CCN(c2ccc3nc(-c4c(N)c5c(F)cccc5[nH]c4=O)[nH]c3c2)CC1 [Dovitinib] (first compound 0.4 µM, partner dose 0.1 µM)",88%,90.1%,115%,113%,73.5%,93%,73.2%,,,91.5%
"COc1cc([C@@H]2c3cc4c(cc3[C@@H](O[C@@H]3O[C@@H]5CO[C@@H](C)O[C@H]5[C@H](O)[C@H]3O)[C@H]3COC(=O)[C@H]23)OCO4)cc(OC)c1O [etoposide] + CO[C@@H]1[C@H](N(C)C(=O)c2ccccc2)C[C@H]2O[C@]1(C)n1c3ccccc3c3c4c(c5c6ccccc6n2c5c31)C(=O)NC4 [Midostaurin] (first compound 0.02 µM, partner dose 0.08 µM)",86.9%,82.4%,90.6%,83.7%,104%,84.2%,130%,79.9%,85.9%,96.3%
"C[C@]1(O)C[C@@H](c2nc(-c3ccc4ccc(-c5ccccc5)nc4c3)c3c(N)nccn32)C1 + CN(C)S(=O)(=O)c1ccc2c(c1)/C(=C/c1cc3c([nH]1)CCCC3)C(=O)N2 [SU6656] (first compound 0.4 µM, partner dose 0.4 µM)",93.8%,90.2%,82.8%,78.8%,80.6%,84.4%,65.8%,72.7%,83.6%,86.8%
"C[C@]1(O)C[C@@H](c2nc(-c3ccc4ccc(-c5ccccc5)nc4c3)c3c(N)nccn32)C1 + CC1(C)NC(=O)N(c2ccc([N+](=O)[O-])c(C(F)(F)F)c2)C1=O [nilutamide] (first compound 0.4 µM, partner dose 1 µM)",99.4%,99.1%,99.4%,81.8%,96.3%,86.5%,146%,100%,92.5%,102%
"CCN(CC)CCNC(=O)c1c(C)[nH]c(/C=C2\C(=O)Nc3ccc(F)cc32)c1C [sunitinib] + COc1ccc(COc2ccc(Cc3cnc(N)nc3N)cc2OC)cc1 [GW2580] (first compound 0.4 µM, partner dose 1 µM)",102%,89.6%,104%,95.2%,102%,112%,82.7%,90.8%,88.4%,88.6%
"C[C@]1(O)C[C@@H](c2nc(-c3ccc4ccc(-c5ccccc5)nc4c3)c3c(N)nccn32)C1 + CCCCCCCCCCCC1=C(O)C(=O)C=C(O)C1=O [Embelin] (first compound 0.4 µM, partner dose 1.2 µM)",96.9%,88.6%,102%,106%,81.9%,85.9%,93.7%,84.4%,93%,96.9%
"CCN(CC)CCNC(=O)c1c(C)[nH]c(/C=C2\C(=O)Nc3ccc(F)cc32)c1C [sunitinib] + O=c1cc(-c2cccc3c2Sc2ccccc2S3)oc(N2CCOCC2)c1 [KU55933] (first compound 0.4 µM, partner dose 1 µM)",110%,81.2%,104%,108%,77.7%,103%,62.9%,99.3%,82.2%,75.6%
"COc1cc([C@@H]2c3cc4c(cc3[C@@H](O[C@@H]3O[C@@H]5CO[C@@H](C)O[C@H]5[C@H](O)[C@H]3O)[C@H]3COC(=O)[C@H]23)OCO4)cc(OC)c1O [etoposide] + N#Cc1c(O)c2c(-c3ccc(-c4ccccc4O)cc3)csc2[nH]c1=O [A769662] (first compound 0.02 µM, partner dose 2 µM)",92.5%,94.2%,102%,94.8%,90.5%,100%,79.8%,96.2%,110%,84.6%
"COc1cc([C@@H]2c3cc4c(cc3[C@@H](O[C@@H]3O[C@@H]5CO[C@@H](C)O[C@H]5[C@H](O)[C@H]3O)[C@H]3COC(=O)[C@H]23)OCO4)cc(OC)c1O [etoposide] + COCC[n+]1c2c(n(Cc3cnccn3)c1C)C(=O)c1ccccc1C2=O [YM155] (first compound 0.02 µM, partner dose 0.0004 µM)",64.8%,88.7%,98.6%,110%,91.8%,85.2%,83.6%,,,72.5%
"COc1cc([C@@H]2c3cc4c(cc3[C@@H](O[C@@H]3O[C@@H]5CO[C@@H](C)O[C@H]5[C@H](O)[C@H]3O)[C@H]3COC(=O)[C@H]23)OCO4)cc(OC)c1O [etoposide] + CN1CCN(c2ccc3nc(-c4c(N)c5c(F)cccc5[nH]c4=O)[nH]c3c2)CC1 [Dovitinib] (first compound 0.02 µM, partner dose 0.1 µM)",86.6%,88.8%,94.3%,99.8%,90%,92.2%,101%,,,85.7%
"CCN(CC)CCNC(=O)c1c(C)[nH]c(/C=C2\C(=O)Nc3ccc(F)cc32)c1C [sunitinib] + CNC(=O)c1cc(Oc2ccc(NC(=O)Nc3ccc(Cl)c(C(F)(F)F)c3)cc2)ccn1 [sorafenib] (first compound 0.4 µM, partner dose 0.4 µM)",92.7%,92.4%,115%,113%,94.1%,95.5%,79.2%,,,84.2%
"Cn1cnc2c(F)c(Nc3ccc(Br)cc3Cl)c(C(=O)NOCCO)cc21 [selumetinib] + C[C@]1(c2nc3c(C(N)=O)cccc3[nH]2)CCCN1 [Veliparib] (first compound 0.015 µM, partner dose 1.4 µM)",93.6%,92.3%,104%,96.9%,66.7%,85.9%,66.9%,,,72.1%
"Cn1cnc2c(F)c(Nc3ccc(Br)cc3Cl)c(C(=O)NOCCO)cc21 [selumetinib] + C[C@]1(O)C[C@@H](c2nc(-c3ccc4ccc(-c5ccccc5)nc4c3)c3c(N)nccn32)C1 [OSI906] (first compound 0.015 µM, partner dose 0.4 µM)",77.8%,77.3%,92.8%,71.5%,85.8%,51.6%,44.7%,,,69.3%
"CCN(CC)CCNC(=O)c1c(C)[nH]c(/C=C2\C(=O)Nc3ccc(F)cc32)c1C [sunitinib] + C[C@]1(c2nc3c(C(N)=O)cccc3[nH]2)CCCN1 [Veliparib] (first compound 0.4 µM, partner dose 1.4 µM)",104%,91%,92.7%,118%,81.7%,105%,64.4%,,,82.2%
"Cn1cnc2c(F)c(Nc3ccc(Br)cc3Cl)c(C(=O)NOCCO)cc21 [selumetinib] + Nc1nc(F)nc2c1ncn2[C@@H]1O[C@H](CO)[C@@H](O)[C@@H]1O [fludarabine] (first compound 0.015 µM, partner dose 0.2 µM)",90.2%,43.1%,99%,104%,67.5%,2.79%,16.4%,,,74.6%
"COc1cc([C@@H]2c3cc4c(cc3[C@@H](O[C@@H]3O[C@@H]5CO[C@@H](C)O[C@H]5[C@H](O)[C@H]3O)[C@H]3COC(=O)[C@H]23)OCO4)cc(OC)c1O [etoposide] + CC(C)C[C@H](NC(=O)[C@H](Cc1ccccc1)NC(=O)c1cnccn1)B(O)O [Bortezomib] (first compound 0.02 µM, partner dose 0.001 µM)",67.9%,79.2%,81%,82.4%,96%,97.8%,86.1%,,,74.2%
"COc1cc([C@@H]2c3cc4c(cc3[C@@H](O[C@@H]3O[C@@H]5CO[C@@H](C)O[C@H]5[C@H](O)[C@H]3O)[C@H]3COC(=O)[C@H]23)OCO4)cc(OC)c1O [etoposide] + Nc1nc(F)nc2c1ncn2[C@@H]1O[C@H](CO)[C@@H](O)[C@@H]1O [fludarabine] (first compound 0.02 µM, partner dose 0.2 µM)",95.1%,31.5%,99.9%,109%,86.7%,9.78%,15.6%,,,78.9%
"CCN(CC)CCNC(=O)c1c(C)[nH]c(/C=C2\C(=O)Nc3ccc(F)cc32)c1C [sunitinib] + Clc1ccc(Nc2nnc(Cc3ccncc3)c3ccccc23)cc1 [vatalanib] (first compound 0.4 µM, partner dose 2 µM)",97%,66.9%,106%,139%,82.4%,103%,53.3%,,,88.5%
"C[C@]1(O)C[C@@H](c2nc(-c3ccc4ccc(-c5ccccc5)nc4c3)c3c(N)nccn32)C1 + O=C(O)c1ccc2c(c1)nc(Nc1cccc(Cl)c1)c1ccncc12 [CX4945] (first compound 0.4 µM, partner dose 0.4 µM)",91.6%,89.4%,110%,80.8%,109%,80.9%,74.6%,,,91.5%
"C[C@]1(O)C[C@@H](c2nc(-c3ccc4ccc(-c5ccccc5)nc4c3)c3c(N)nccn32)C1 + Nc1cccc2c1CN(C1CCC(=O)NC1=O)C2=O [lenalidomide] (first compound 0.4 µM, partner dose 1 µM)",95.2%,98.1%,86.6%,85%,94.3%,81.5%,96.4%,,,102%
"C[C@]1(O)C[C@@H](c2nc(-c3ccc4ccc(-c5ccccc5)nc4c3)c3c(N)nccn32)C1 + C[C@]1(c2nc3c(C(N)=O)cccc3[nH]2)CCCN1 [Veliparib] (first compound 0.4 µM, partner dose 1.4 µM)",92.6%,99.8%,95.8%,90%,89.6%,98%,94.1%,,,76.1%
